Assay results from the supplement of paper PMC10369915.
Some of the results follow. Rule as the data show it: active = 3.2 or more and inactive = the rest. The signal is at background level for most entries.

target: SHP2 C-SH2 domain E139D; assay: enrichment score (SH2-bound / input frequency) (ratio); bacterial display of known human phosphotyrosine sites (pTyr-Var adds point mutants) read by sequencing; higher = stronger binding; tyrosines were phosphorylated by kinases first; conditions: peptide library: pTyr-Var
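Also: displayed peptides selected on beads carrying the immobilized SH2 domain, with library peptides lacking any tyrosine serving as negative controls.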

Enrichment score, inactive:
ACCLLYRGDVV [TUBA4A_Y319] 1.51, ACCLLYCGDVV [TUBA4A_Y319_R320C] 1.11, LTTPTFGDLNH [TUBB_Y222_Y222F] 1.13, NTDETYCIDNK [TUBB3_Y200_E205K] 0.753, DNEALYDICFC [TUBB3_Y208_R213C] 1.05, DLVSEYQQFQD [TUBB3_Y422_YF] 0.623, RGSQQYRALTV [TUBB8_Y281] 0.493, RGSQQYRALPV [TUBB8_Y281_T285P] 0.973, DKNSSYFADWF [TUBB8_Y340_L345F] 0.747, HAVYVYDICHV [TWNK_Y508] 1.55, HAVFIYDICHV [TWNK_Y508_V507I_YF] 1.64, HAVFVYDICHV [TWNK_Y508_YF] 1.22, GRDQPYSGTGD [TYRO3_Y828_A831T] 0.662, GGDQPYSGAGD [TYRO3_Y828_R824G] 0.525, NTQRPYFKGGG [TYROBP_Y111_YF] 0.868, TQRPYYKGGGG [TYROBP_Y112] 0.771, TQRPFYKGGGG [TYROBP_Y112_YF] 0.806, ETESPYQELQG [TYROBP_Y91] 0.52

target: SHP2 C-SH2 domain wild-type; assay: as above; conditions: peptide library: pTyr-Var

Enrichment score, inactive:
ACCLLYRGDVV [TUBA4A_Y319] 1.18, ACCLLYCGDVV [TUBA4A_Y319_R320C] 1.21, LTTPTFGDLNH [TUBB_Y222_Y222F] 0.969, NTDETYCIDNK [TUBB3_Y200_E205K] 0.966, DNEALYDICFC [TUBB3_Y208_R213C] 1.24, DLVSEYQQFQD [TUBB3_Y422_YF] 0.655, RGSQQYRALTV [TUBB8_Y281] 0.457, RGSQQYRALPV [TUBB8_Y281_T285P] 0.864, DKNSSYFADWF [TUBB8_Y340_L345F] 0.687, HAVYVYDICHV [TWNK_Y508] 1.76, HAVFIYDICHV [TWNK_Y508_V507I_YF] 1.65, HAVFVYDICHV [TWNK_Y508_YF] 1.41, GRDQPYSGTGD [TYRO3_Y828_A831T] 0.638, GGDQPYSGAGD [TYRO3_Y828_R824G] 0.371, NTQRPYFKGGG [TYROBP_Y111_YF] 0.812, TQRPYYKGGGG [TYROBP_Y112] 0.615, TQRPFYKGGGG [TYROBP_Y112_YF] 0.757, ETESPYQELQG [TYROBP_Y91] 0.685

target: SHP2 N-SH2 domain L43F; assay: as above; conditions: peptide library: pTyr-Var

Enrichment score, inactive:
ACCLLYRGDVV [TUBA4A_Y319] 1.26, ACCLLYCGDVV [TUBA4A_Y319_R320C] 1.03, LTTPTFGDLNH [TUBB_Y222_Y222F] 1.22, NTDETYCIDNK [TUBB3_Y200_E205K] 1.02, DNEALYDICFC [TUBB3_Y208_R213C] 1.15, DLVSEYQQFQD [TUBB3_Y422_YF] 0.784, RGSQQYRALTV [TUBB8_Y281] 0.389, RGSQQYRALPV [TUBB8_Y281_T285P] 0.817, DKNSSYFADWF [TUBB8_Y340_L345F] 1.03, HAVYVYDICHV [TWNK_Y508] 1.08, HAVFIYDICHV [TWNK_Y508_V507I_YF] 1.37, HAVFVYDICHV [TWNK_Y508_YF] 1.64, GRDQPYSGTGD [TYRO3_Y828_A831T] 0.582, GGDQPYSGAGD [TYRO3_Y828_R824G] 0.43, NTQRPYFKGGG [TYROBP_Y111_YF] 0.769, TQRPYYKGGGG [TYROBP_Y112] 0.599, TQRPFYKGGGG [TYROBP_Y112_YF] 0.81, ETESPYQELQG [TYROBP_Y91] 0.452

target: SHP2 N-SH2 domain T42A; assay: as above; conditions: peptide library: pTyr-Var

Enrichment score, inactive:
ACCLLYRGDVV [TUBA4A_Y319] 1.17, ACCLLYCGDVV [TUBA4A_Y319_R320C] 0.76, LTTPTFGDLNH [TUBB_Y222_Y222F] 0.95, NTDETYCIDNK [TUBB3_Y200_E205K] 0.57, DNEALYDICFC [TUBB3_Y208_R213C] 1.03, DLVSEYQQFQD [TUBB3_Y422_YF] 0.651, RGSQQYRALTV [TUBB8_Y281] 0.35, RGSQQYRALPV [TUBB8_Y281_T285P] 0.761, DKNSSYFADWF [TUBB8_Y340_L345F] 0.756, HAVYVYDICHV [TWNK_Y508] 1.48, HAVFIYDICHV [TWNK_Y508_V507I_YF] 1.61, HAVFVYDICHV [TWNK_Y508_YF] 0.873, GRDQPYSGTGD [TYRO3_Y828_A831T] 0.383, GGDQPYSGAGD [TYRO3_Y828_R824G] 0.452, NTQRPYFKGGG [TYROBP_Y111_YF] 0.65, TQRPYYKGGGG [TYROBP_Y112] 0.74, TQRPFYKGGGG [TYROBP_Y112_YF] 0.676, ETESPYQELQG [TYROBP_Y91] 0.427

target: SHP2 N-SH2 domain T52S; assay: as above; conditions: peptide library: pTyr-Var

Enrichment score, inactive:
ACCLLYRGDVV [TUBA4A_Y319] 1.64, ACCLLYCGDVV [TUBA4A_Y319_R320C] 1.03, LTTPTFGDLNH [TUBB_Y222_Y222F] 1.37, NTDETYCIDNK [TUBB3_Y200_E205K] 0.705, DNEALYDICFC [TUBB3_Y208_R213C] 1.13, DLVSEYQQFQD [TUBB3_Y422_YF] 0.665, RGSQQYRALTV [TUBB8_Y281] 0.456, RGSQQYRALPV [TUBB8_Y281_T285P] 1.12, DKNSSYFADWF [TUBB8_Y340_L345F] 0.739, HAVYVYDICHV [TWNK_Y508] 1.69, HAVFIYDICHV [TWNK_Y508_V507I_YF] 1.47, HAVFVYDICHV [TWNK_Y508_YF] 1.55, GRDQPYSGTGD [TYRO3_Y828_A831T] 0.499, GGDQPYSGAGD [TYRO3_Y828_R824G] 0.389, NTQRPYFKGGG [TYROBP_Y111_YF] 0.729, TQRPYYKGGGG [TYROBP_Y112] 1.56, TQRPFYKGGGG [TYROBP_Y112_YF] 0.758, ETESPYQELQG [TYROBP_Y91] 0.509

target: SHP2 N-SH2 domain wild-type; assay: as above; conditions: peptide library: pTyr-Var

Enrichment score, inactive:
ACCLLYRGDVV [TUBA4A_Y319] 1.16, ACCLLYCGDVV [TUBA4A_Y319_R320C] 0.941, LTTPTFGDLNH [TUBB_Y222_Y222F] 0.913, NTDETYCIDNK [TUBB3_Y200_E205K] 0.908, DNEALYDICFC [TUBB3_Y208_R213C] 1.28, DLVSEYQQFQD [TUBB3_Y422_YF] 0.642, RGSQQYRALTV [TUBB8_Y281] 0.487, RGSQQYRALPV [TUBB8_Y281_T285P] 1.02, DKNSSYFADWF [TUBB8_Y340_L345F] 0.701, HAVYVYDICHV [TWNK_Y508] 2.39, HAVFIYDICHV [TWNK_Y508_V507I_YF] 1.81, HAVFVYDICHV [TWNK_Y508_YF] 2, GRDQPYSGTGD [TYRO3_Y828_A831T] 0.569, GGDQPYSGAGD [TYRO3_Y828_R824G] 0.43, NTQRPYFKGGG [TYROBP_Y111_YF] 0.696, TQRPYYKGGGG [TYROBP_Y112] 0.753, TQRPFYKGGGG [TYROBP_Y112_YF] 0.746, ETESPYQELQG [TYROBP_Y91] 0.692
